Reference: PubChem BioAssay AID624417 (National Center for Advancing Translational Sciences (NCATS), 2012)
Values joined by “and” are separate entries in the source; they are usually repeats but may differ in a detail not shown here. Equal values may be shown once. Screen size: about 410,000 compounds; about 6,400 (1.6%) were called active. Inconclusive means that the source gave no clear call. Such entries were picked first, then a sample of the others. The call rests on the fitted dose curve; in most records, active means well fitted inhibition curve with a large enough effect; inconclusive means small, poorly fitted or top-dose-only effect; inactive means no such curve, though single readings can be large or run the other way. A potency beside an inconclusive call is a rough fit, not a confirmed value.

target: Glucagon-like peptide 1 receptor (Homo sapiens) (UniProt P43220); assay: qHTS of GLP-1 Receptor Inverse Agonists (Inhibition Mode); settings: HEK293 GLP-1R CRE-luciferase, luminescence, 24 h, GLP-1R form is constitutively active; series mostly up to 38.3 µM; further: nearly all actives have a fitted effect of over 55% in size
In short: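 HEK293 cells stably co-expressing a cAMP-responsive luciferase reporter and constitutively active GLP-1R were seeded, incubated 12 h, then exposed to compounds for 24 h at 37 C. Luminescence was read 12 min after detection reagent; inverse agonists lower signal.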
Potency means the concentration at half of the fitted maximal effect; tags describe the fitted curve by direction and shape.

Chain of UniProt P43220 (P43220 whole entry, looked up): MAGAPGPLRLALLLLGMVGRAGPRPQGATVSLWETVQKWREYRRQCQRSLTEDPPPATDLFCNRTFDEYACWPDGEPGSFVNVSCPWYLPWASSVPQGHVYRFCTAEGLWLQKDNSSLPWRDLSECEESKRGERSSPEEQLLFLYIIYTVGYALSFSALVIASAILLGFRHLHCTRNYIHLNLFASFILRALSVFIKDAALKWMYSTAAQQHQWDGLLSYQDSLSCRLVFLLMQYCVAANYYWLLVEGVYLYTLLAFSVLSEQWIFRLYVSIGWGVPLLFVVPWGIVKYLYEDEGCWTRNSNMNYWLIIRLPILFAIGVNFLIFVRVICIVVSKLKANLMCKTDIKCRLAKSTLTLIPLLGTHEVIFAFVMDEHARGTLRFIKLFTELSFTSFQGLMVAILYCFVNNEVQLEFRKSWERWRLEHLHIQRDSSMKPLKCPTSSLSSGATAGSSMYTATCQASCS

Potency, inconclusive:
CCOCCCn1c(SCC(=O)Nc2cccc(OC)c2)nc2ccccc2c1=O 28.2 µM [inhibitor, single point]
Nc1ccc(N2CCN(c3cccc(Cl)c3)CC2)cc1 0.316 µM [inhibitor, full curve, poor fit]
Cn1c(=O)c2cc(NC(=O)Cc3cccnc3)ccc2n1-c1ccc2ccccc2c1 3.16 µM [inhibitor, full curve]
Cc1c(Cl)cccc1NC(=O)CNC(=O)Cc1c[nH]c2ccccc12 2.24 µM [inhibitor, full curve]
CC1CC(C)CN(C(=O)c2nn(C)c3c2CSc2ccccc2-3)C1 (stereo not drawn) 12.6 µM [inhibitor, single point]
Cn1cc(C(C[N+](=O)[O-])c2ccccc2)c2ccccc21 (stereo not drawn) 8.91 µM [inhibitor, partial curve, poor fit]
Cc1ccc(Cl)cc1N1CCN(S(=O)(=O)c2ccc3[nH]c4c(c3c2)CCCC4)CC1 11.2 µM [inhibitor, partial curve, poor fit]
COc1ccc2c(c1)C1NC(=S)NC(C)(O2)C1C(=O)Nc1ccc(Cl)cc1 (stereo not drawn) 12.6 µM [inhibitor, single point]
CCN(CC)c1ccc(NC(=O)Nc2ccc(C(C)=O)cc2)cc1 5.62 µM [inhibitor, full curve]
CCCC[C@@H]1C[C@H]1[C@@H](NC(=O)c1ccccc1)c1ccccc1C(F)(F)F 8.91 µM [inhibitor, partial curve]
Cc1cccc(CN2C(=O)CC(c3ccc(Cl)cc3)c3c(C)nn(-c4nc(C)cc(C)n4)c32)c1 (stereo not drawn) 15.8 µM [inhibitor, single point]
CCCCN(CCCC)CCNC(=O)CN1C(=O)CSc2ccc(S(=O)(=O)N3CCCCC3)cc21 15.8 µM [inhibitor, single point] and 12.6 µM [inhibitor, partial curve, poor fit]
CCOc1ccc(-c2ccc(C=O)o2)c([N+](=O)[O-])c1 11.2 µM [inhibitor, partial curve, poor fit]
CCCC(=O)O[C@]1(C(=O)CCl)[C@@H](C)C[C@H]2[C@@H]3CCC4=CC(=O)C=C[C@]4(C)[C@@]3(F)C(=O)C[C@@]21C 1.78 µM [inhibitor, partial curve, poor fit]
C=C(C)C1CC=C(C)/C(=N/NC(=O)COc2cccc(C)c2)C1 (stereo not drawn) 10 µM [inhibitor, partial curve, poor fit]
CCN(CC)C(=O)c1c2c(nc3ccccc13)-c1ccccc1CC2 7.94 µM [inhibitor, partial curve, poor fit]
Oc1ccccc1N1CCN(c2ncnc3sc(-c4ccccc4)cc23)CC1 28.2 µM [inhibitor, single point]
CN(C)S(=O)(=O)c1ccc(NC(=O)CSc2ncnc3ccccc23)cc1 11.2 µM [inhibitor, single point]
NS(=O)(=O)c1ccc(N2N=C(c3ccccc3)CC2c2ccc(Br)cc2)cc1 (stereo not drawn) 12.6 µM [inhibitor, single point]
CN(C)C(=O)c1cc(Cl)ccc1Sc1cc(Cl)ccc1Cl 14.1 µM [inhibitor, single point]
COc1cccc(C(=O)N/N=C(\C)CC(=O)Nc2ccc(N(C)C)cc2)c1 28.2 µM [inhibitor, single point]
CO/N=C\c1cc(C(=O)c2ccc(Cl)cc2Cl)cn1C 28.2 µM [inhibitor, single point]
CC(=O)c1ccc(N2CCN(C(=S)Nc3ccc(Oc4ccccc4)cc3)CC2)cc1 6.31 µM [inhibitor, partial curve, poor fit]
COc1ccc(CCNC(=O)c2cc(-c3ccccc3)c(N3CCOCC3)s2)cc1OC 14.1 µM [inhibitor, single point]
COc1ccc(CN(C(=S)Nc2ccccc2)C2CC(=O)N(c3ccc(F)cc3)C2=O)cc1 (stereo not drawn) 14.1 µM [inhibitor, single point]
COc1cccc(C#Cc2ccc3c(c2)O[C@H](CN(C)C)[C@@H](C)CN([C@@H](C)CO)S3(=O)=O)c1 28.2 µM [inhibitor, single point]
CCn1ncc([C@@H]2C[C@H]3CN(Cc4cccc(Cl)c4)C(=O)[C@]34CCCN24)c1C 3.98 µM [inhibitor, partial curve, poor fit]
N#Cc1c(Cl)nsc1NCCN1CCOCC1 31.6 µM [inhibitor, single point]
COc1ccc(NC(=O)C(=O)NCC2CCCN2S(=O)(=O)c2ccc(C)cc2)cc1 (stereo not drawn) 28.2 µM [inhibitor, partial curve, poor fit]
Cc1cccc(N(Cc2ccccc2)C(=O)CN2C(=O)NC3(CCCCC3C)C2=O)c1 (stereo not drawn) 6.31 µM [inhibitor, partial curve, poor fit]
N#Cc1c(N)nc(Sc2ccc(Cl)cc2)c(C#N)c1-c1ccccc1Cl 7.08 µM [inhibitor, partial curve, poor fit]
Cn1cccc1/C=C1\CCc2ccccc2C1=O 11.2 µM [inhibitor, single point]
COc1ccc(-c2noc(N3CCCC(C(=O)Nc4ccc(F)cc4F)C3)n2)cc1 (stereo not drawn) 11.2 µM [inhibitor, single point]
Cc1cc2ccccn2c1C(=O)c1nc(NCc2ccccc2)ncc1Cl 12.6 µM [inhibitor, single point]
COc1ccccc1NC(=O)N1CCN(c2ccnc3cc(Cl)ccc23)CC1 10 µM [inhibitor, partial curve, poor fit]
Cc1ccc(SCc2ccc(C(=O)N3CCCCC3)cc2)cc1 15.8 µM [inhibitor, partial curve, poor fit]
CC1CN(c2nc3ccccc3cc2-c2ccccc2)CC(C)O1 (stereo not drawn) 11.2 µM [inhibitor, single point]
Cc1cc(C)cc(-n2ncc3c2CCCC3NC(=O)c2ccccc2)c1 (stereo not drawn) 14.1 µM [inhibitor, partial curve, poor fit]
Cc1ccc(-n2c(CNc3ccc(C)c(Cl)c3)n[nH]c2=S)cc1 28.2 µM [inhibitor, single point]
O=C(COc1ccccc1Cl)Nc1cnn(Cc2ccccc2)c1 11.2 µM [inhibitor, single point]
CCN1CCN(C(=O)/C=C/c2ccc(C(C)C)cc2)CC1 12.6 µM [inhibitor, partial curve, poor fit]
CC(C)(C)c1csc(NC2=NS(=O)(=O)c3ccccc32)n1 12.6 µM [inhibitor, partial curve, poor fit]
COc1cc(SC#N)ccc1N=Cc1c(C)[nH]n(-c2ccc(C)cc2)c1=O 12.6 µM [inhibitor, single point]
O=C(NCCC(=O)N1CCN(c2ccccc2O)CC1)c1ccc(Br)cc1 2.51 µM [inhibitor, partial curve, poor fit]
CCOc1ccc(C(=O)Nc2ccc(S(=O)(=O)N3CCCCC3c3cccnc3)cc2)cc1 (stereo not drawn) 10 µM [inhibitor, partial curve, poor fit]
NS(=O)(=O)c1ccc(N/N=C2/CCCCC2C2CCCCC2)c([N+](=O)[O-])c1 (stereo not drawn) 7.94 µM [inhibitor, partial curve, poor fit]

Potency, active:
COC(=O)c1ccc(C23CC4(C2)[C@H](CN(C)[C@@H]4c2ccccc2)C3c2ccc(C(F)(F)F)cc2)cc1 (stereo partly drawn) 10 µM
O=C(Nc1c(-c2ccccc2)nc2ccccn12)c1ccc(Br)cc1 11.2 µM

Potency, inactive:
CC(C)CN1C(=O)CSCC1(C)C(=O)NCc1ccccc1 (stereo not drawn)
CC(=O)N1c2ccccc2C2(O)N=C(C)SC12 (stereo not drawn)
COc1ccc(/C=C/C(=O)NC(=S)NNC(=O)c2cccnc2)cc1
CCCNc1nc(NCc2ccccc2OC)c2cnn(C)c2n1
COc1ccc(C2NC(=O)c3c(sc4c3CCN(C)C4)N2)cc1O (stereo not drawn)
CCN(CC)CCNC(=O)c1cc(Cl)c(N)cc1OC
CC(NCc1ccc(N(C)C)cc1)C1CC2CCC1C2 (stereo not drawn)
C/C(=N\NC(=O)c1ccc(-c2ccccc2)cc1)c1cccc(N)c1
COc1ccc(N2CCN(S(=O)(=O)CCNC(=O)c3ccc(C(F)(F)F)cc3)CC2)cc1
COc1cc2c(cc1OC)C1(CCCC1)CNC2c1cccc([N+](=O)[O-])c1 (stereo not drawn)
Cc1cc(Cl)ccc1OCC(=O)OC(C)C(=O)NC(N)=O (stereo not drawn)
C=CCSC1=Nc2cc(OC)c(OC)cc2C2=NC(=O)CN12
CN1CCC(N(C)C(=O)/C(C#N)=C/c2ccccc2)CC1
Cc1noc(C)c1S(=O)(=O)N(CC(=O)NCc1ccccc1Cl)c1ccc(C(C)C)cc1
Cc1cccc(N2CCN(c3nc4ccccc4c(=O)n3-c3ccc(Cl)cc3)CC2)c1C
